According to PubChem BioAssay AID445 (National Center for Advancing Translational Sciences (NCATS), 2006):
Screen size: about 110,000 compounds; about 40 (0.04%) were called active. Inconclusive results, whose numbers are uncertain, are shown with a selection of clear calls. The call rests on the fitted dose curve; in most records, active means well fitted curve in the direction sought with a large enough effect in the signal ratio (not every such curve was filed as active); inconclusive means small, poorly fitted or top-dose-only effect, or a change in a side signal; inactive means flat fitted curve, though single readings scatter; the % refers to the signal ratio. Potencies beside an inconclusive call are fits to weak or partial responses and may not hold up.

Experiment: IkB Signaling;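 on IkBa stabilization activation: 0% = basal untreated cells and 100% = reference inhibitor full response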
Details: ABC-DLBCL IkBa-CBG/CBR dual luciferase ratio (green luciferase fused to IkBa over red control in OCI-Ly3 lymphoma cells), 4 h; IkBa stabilization activation: at 57.1 µM (top of the series), scaled: untreated 0%, proteasome inhibitor 100% unless noted
Summary of the method: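 Curves were fitted separately to fusion (green), unfused (red) and ratio luminescence, then classed by r2, magnitude and activity. Cells: OCI-Ly3, 4 h compound plus doxycycline at 37C; 10 uM MG-132 defined full response.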
Potency means the concentration at half of the fitted maximal effect.

SMILES	IkBa stabilization activation	Potency
COc1cccc(NC(=O)NC2(C(F)(F)F)Oc3ccccc3O2)c1	inconclusive: 6.61% [signal inhibitor]	
Cn1c(=O)c2nc(SCC(=O)Nc3ccc(OC(F)(F)F)cc3)n(C)c2n(C)c1=O	inactive: -0.998%	
COc1ccc(CC(=O)Nc2c(C(=O)N3CCN(c4ccccc4)CC3)oc3ccccc23)cc1OC	inconclusive: 1.43% [signal inhibitor]	
CCN(CC)c1ncnc2c1cnn2-c1cc(Cl)ccc1C	inconclusive: 2.51% [signal inhibitor]	
O=C1OCC2=C1C(c1cccc(Cl)c1)CC(=O)N2c1ccc(C(F)(F)F)cc1 (stereo not given)	inconclusive: 2.24% [signal inhibitor]	
COc1cc(OC)cc(-c2cc3nc(C)c(CCC(=O)NCCc4cccc(C)c4)c(C)n3n2)c1	inconclusive: 1.47% [signal inhibitor]	
COc1cc(NC(=O)Cn2nc(C(F)(F)F)c3c2CCC3)cc(OC)c1OC	inconclusive: 5.57% [signal inhibitor]	
COc1ccc(OC)c(CNC(=O)c2ccc(N3Cc4ccccc4Oc4ncccc43)s2)c1	inconclusive: -1.71% [signal inhibitor]	
COc1cccc(-c2nnc(SCc3ccc(C#N)cc3)n2Cc2ccco2)c1	inconclusive: 5.33% [signal inhibitor]	
COc1ccccc1OCc1ccc(C(=O)Nc2ccncc2)o1	inconclusive: 1.2% [signal inhibitor]	
COc1ccc2[nH]c3c(c2c1)CCN(C(=O)CCC1CCCC1)C3c1ccc(F)cc1 (stereo not given)	inconclusive: 0.421% [signal inhibitor]	
Cc1cccc(Cn2c(-c3ccccc3)nc3ccccc32)c1	inconclusive: 3.25% [signal inhibitor]	
O=C(CSc1nccn1-c1ccc(F)cc1)Nc1nc2ccccc2s1	inconclusive: 4.69% [signal inhibitor]	
O=C(CC1N=C2c3ccccc3N=C(SCc3ccc(F)cc3)N2C1=O)NCCc1ccccc1 (stereo not given)	inconclusive: -0.634% [signal inhibitor]	
Cc1ccc(-c2cnc(C3CC3)o2)cc1S(=O)(=O)Nc1cccc(C)c1C	inactive: -1.63%	
c1ccc(CNc2ccc3ccccc3n2)nc1		inconclusive: 31.6 µM [signal inhibitor, partial curve]
CC(C)(C)OC(=O)N1CCC(c2c(C(=O)N3CCN(c4ccccn4)CC3)cnn2-c2ccc(F)cc2F)CC1	inconclusive: 2.43% [signal inhibitor]	
CCn1c(=O)c2cc(C(=O)NCc3cc(OC)ccc3OC)sc2c2ccccc21		inconclusive: 15.8 µM [signal inhibitor]
CCN1CCN(c2csc3ccc(Br)cc3c2=O)CC1	inactive: 8.96%	
Cc1cc(C)nc(N2CCCC(C(=O)Nc3ccc4nc(C)c(C)nc4c3)C2)n1 (stereo not given)	inconclusive: 1.37% [signal inhibitor]	
COc1ccc(Cl)cc1NCc1nnc2n1CCCCC2	inactive: 1.24%	
CCCNc1nc2c(c(=O)[nH]c(=O)n2C)n1Cc1ccc(F)cc1	inactive: 2.3%	
COC(=O)c1c(NC(=O)c2ccc(OC)cc2OC)sc2c1CCCCC2	inconclusive: 5.38% [signal inhibitor]	

SMILES	IkBa stabilization activation	Potency
O=C(CSc1nc2ccccc2n1-c1ccccc1)NCC1CCCO1 (stereo not given)	inactive: 1.19%	
O=c1oc(-c2cccnc2)nc2ccccc12		inconclusive: 20 µM [signal inhibitor, partial curve]
Cc1ccc(S(=O)(=O)N(C)c2ccc(NS(C)(=O)=O)cc2)cc1	inactive: -1.05%	
O=C(Nc1sc2c(c1C(=O)NCc1ccco1)CCCC2)c1cc(=O)c2cc(Cl)ccc2o1	inconclusive: 2.34% [signal inhibitor]	
CCC(=O)N[C@@H]1Cc2ccccc2[C@@H](c2ccccc2)C1	inactive: 0.555%	
CCc1ccc(S(=O)(=O)Nc2cccc(-c3ccc(N4CCCCC4)nn3)c2)s1	inactive: -2.1%	
Clc1ccccc1CNCC1CCC(CNCc2ccccc2Cl)CC1 (stereo not given)	inconclusive: -0.229% [signal inhibitor]	
CC(=O)Nc1ccc(NC(=O)c2ccc3c(c2)N(Cc2cccc(Cl)c2)C(=O)c2ccccc2S3=O)cc1 (stereo not given)	inconclusive: 1.09% [signal inhibitor]	
COCc1nc2ccccc2n1Cc1ccc(C(C)(C)C)cc1	inconclusive: 0.508% [signal inhibitor]	
CCCCN(C)CC(O)Cn1cc(/C=C/C(=O)c2ccc(Br)cc2)c2ccccc21 (stereo not given)	inconclusive: -2.23% [signal inhibitor]	
CC(=O)c1cccc(NC(=O)c2sc(-n3nc(C)c(Cc4ccccc4)c3C)nc2C)c1	inconclusive: 1.92% [signal inhibitor]	
Cc1ccc2c(CNC3CCCCC3)c(C(=O)O)n(Cc3ccc(F)cc3)c2c1	inconclusive: 1.17% [signal inhibitor]	
COCCNC(=O)c1ccc2c(c1)N(Cc1cc(C)ccc1C)C(=O)c1ccccc1S2=O (stereo not given)	inconclusive: 0.331% [signal inhibitor]	
Cc1ccc2nc(COc3cccc(NC(=O)Nc4ccc(C)c(Cl)c4)c3)cc(=O)n2c1	inconclusive: 2.13% [signal inhibitor]	
CCCSc1nc2c(cnn2-c2ccc(F)cc2)c(=O)[nH]1	inactive: -2.9%	
O=C(Cn1cnc2ccccc2c1=O)Nc1ccc2c(c1)OCCO2	inactive: -2%	
O=C(Nc1ccc(F)c(Cl)c1)c1ccc2c(Cl)c3c(nc2c1)CCCC3		inconclusive: 31.6 µM [signal inhibitor, partial curve]
O=C(N1CCN(Cc2ccc3c(c2)OCO3)CC1)C12CC3CC(CC(C3)C1)C2	inconclusive: 2.83% [signal inhibitor]	
Cc1cc(C)cc(-n2c(SCC(=O)Nc3ccccc3)nc3c(oc4ccccc43)c2=O)c1	inconclusive: 4.73% [signal inhibitor]	
COc1ccc(-c2noc(CSc3ccccc3)n2)cc1OC	inconclusive: 3.2% [signal inhibitor]	
Cc1ccc(-n2nc3c(=O)n(C(C)C(=O)NCc4ccc(OC(C)C)cc4)nc(C)c3c2C)cc1 (stereo not given)	inconclusive: 0.41% [signal inhibitor]	
COc1ccc2c(CNCc3cccs3)c(C(=O)O)n(Cc3ccc(F)cc3)c2c1	inconclusive: 0.809% [signal inhibitor]	
